Among all 120,000 compounds or so, about 5,300 (4.4%) were called active. The shares of active, inactive and inconclusive entries below differ from those in the screen. The call rests on the fitted dose curve; in most records, active means well fitted inhibition curve with a large enough effect; inconclusive means small, poorly fitted or top-dose-only effect; inactive means no such curve, though single readings can be large or run the other way. A potency beside an inconclusive call is a rough fit, not a confirmed value.
Experiment: qHTS Primary assay for Inhibitors of Plasmodium falciparum Dd2 growth in vitro; further: nearly all actives have a fitted effect of over 65% in size;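 on activity, negative = inhibition: plate controls were DMSO vehicle for no effect and reference drug for full effect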
Conditions: P. falciparum Dd2 growth, SYBR Green, 72 h; activity, negative = inhibition: at 28.9 µM (top of the series) unless noted; series mostly up to 28.9 µM
Procedure, shortened: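 Readout: SYBR Green fluorescence, 485 nm excitation, 535 nm emission, after ~16 h lysis at 37C. Before that, Dd2-infected red cells (2.5% hematocrit) grew 72 h with compound, 29 uM top final concentration.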
Potency means the concentration at half of the fitted maximal effect; tags describe the fitted curve by direction and shape.

Compound | activity, negative = inhibition | outcome | Potency
CCCN(CC1CCOC1)S(=O)(=O)c1ccc(C(C)C)cc1 (stereo unspecified) | inactive: 30.6% [at 5.79 µM] |  | 
N[C@H]1c2ccccc2C[C@@H]1NC(=O)COc1ccc(Cl)cc1Cl |  | inactive | 
CN(C)CC(=O)Nc1ccc2n(c1=O)C[C@H]1C[C@@H]2CN(S(=O)(=O)c2ccccc2)C1 | inactive: -18.7% [at 44.1 µM] |  | 
Cc1ccc(CN2CCC(CNC(=O)c3cc4ccc5cccnc5c4[nH]3)CC2)cc1 |  |  | active: 3.55 µM
O=C(NCc1c[nH]c2ncccc12)c1cccc(Cl)c1 |  |  | inconclusive: 35.5 µM [inhibitor, single point]
Cc1ccc(NC(=O)N2CCc3[nH]c4ccc(F)cc4c3C2)cc1 | inactive: -6.6% |  | 
COC(=O)[C@@H]1Cc2ncn(Cc3ccccc3)c2CN1S(=O)(=O)c1cccc2c(N(C)C)cccc12 |  |  | inconclusive: 3.55 µM [inhibitor, partial curve, poor fit]
Cc1noc(C)c1CC(=O)NCC12CCC=C1NC(=O)CC2 (stereo unspecified) | inactive: 12% |  | 
Cc1c(C(=O)NCc2cncn2CC(C)C)oc2c(F)cccc12 | inactive: -27.8% |  | 
COc1cc(OC)cc(C(=O)N2CCC(c3n[nH]c(=O)n3-c3ccccc3)CC2)c1 |  |  | inconclusive: 10 µM [inhibitor, single point]
O=C(NC1CCc2nnc(C3CC3)n2CC1)c1ccoc1 (stereo unspecified) |  | inactive | 
O=C(C1CCN(c2nc(-c3ccccc3)nc3c2CCC3)CC1)N1CCCNCC1 |  |  | active: 8.91 µM
CC(C)CN1CC[C@H](c2nc3ncccc3[nH]2)C1 |  |  | inconclusive: 39.8 µM [inhibitor, single point]
COc1ccc(CN(Cc2ccc(OC)cc2)C[C@H]2C[C@@H]3CCN2C[C@@H]3c2cc(C3CCCC3)nn2C)cc1 |  |  | inconclusive: 3.55 µM [inhibitor, partial curve, poor fit]
COCC(=O)N1CCC(Oc2nccnc2N2CCc3ccccc32)C1 (stereo unspecified) |  |  | inconclusive: 11.2 µM [inhibitor, single point]
CC(C)CN1C(=O)c2cccn2CC1C(=O)NCCN1CCCCC1 (stereo unspecified) |  |  | inconclusive: 20 µM [inhibitor, partial curve, poor fit]
CCOc1ccc(NC(=O)C23CCCC=C2N(CC)C(=O)CC3)cc1 (stereo unspecified) |  |  | inconclusive: 5.62 µM [inhibitor, partial curve]
Cc1noc(C)c1[S+](=O)([O-])N1CC2(C1)C(=O)Nc1ccccc12 | inactive: 2.84% |  | 
CN1CCN(C(=O)c2ccc3c(c2)N(Cc2c(F)cccc2Cl)C(=O)c2ccccc2S3)CC1 |  |  | active: 0.199 µM
CCc1sc(Nc2ccc(Cl)cc2)nc1-c1cc2cccc(OC)c2oc1=O |  |  | inconclusive: 11.2 µM [inhibitor, partial curve]
Cc1cc(OCC(=O)Nc2cc(-c3nc4ccccc4[nH]3)ccc2C)ccc1Cl |  |  | inconclusive: 12.6 µM [inhibitor, partial curve]
CCSc1oc(-c2ccc(F)cc2)nc1S(=O)(=O)c1ccc(C)cc1 |  |  | inconclusive: 17.8 µM [inhibitor, single point]
CCC(=O)Nc1ccccc1-c1nc2ccccc2n(CC(=O)c2ccc(C)c(C)c2)c1=O |  |  | inconclusive: 17.8 µM [inhibitor, single point]
CC(C)(C)NC(=O)c1cnn(-c2ccccc2)c1C1CCN(C(=O)OC(C)(C)C)CC1 |  |  | inconclusive: 11.2 µM [inhibitor, single point]

Compound | activity, negative = inhibition | outcome | Potency
O=C(NCc1ccccc1-c1ccccc1)c1cn(Cc2ccc(F)cc2)nn1 |  | inactive | 
CCc1c(C(=O)N2CCC(CO)(Cc3ccccc3)CC2)[nH]c2ccccc12 |  |  | inconclusive: 10 µM [inhibitor, single point]
O=C(NCc1ccccc1Cl)c1cc2c(s1)-c1ccccc1SC2 | inactive: -1% |  | 
CCN(CC)C(=O)C(C)[C@@H]1CC[C@@]2(C)CC[C@H](NC(=O)CC(C)(C)C)[C@@H](C)[C@@H]2[C@H]1O (stereo partly specified) |  | inactive [at 44.1 µM] | 
Cc1ccccc1-c1nnc(CN2CCN(c3cccc(C)c3C)CC2)o1 | inactive: 34.9% [at 0.594 µM] |  | 
COc1cncc([C@@H](NC(=O)c2scc3c2OCCO3)C2CC(O)C2)c1 (stereo partly specified) | inactive: -18.8% |  | 
O=C(NCc1ccccc1F)c1ccc2c(c1)CN(Cc1ccc(O)c(F)c1)CCO2 |  |  | inconclusive: 17.8 µM [inhibitor, single point]
CCc1nc(-c2c3n(c(=O)n(Cc4ccc(Cl)cc4)c2=O)CCCC3)no1 | inactive: -9.53% |  | 
CC(=O)c1ccc(NC(=O)N[C@H]2CO[C@H]3[C@@H]2OC[C@@H]3Nc2nccc(C(C)(C)C)n2)cc1 | inactive: 5.46% |  | 
Cc1ccc(C(=O)/C=C/c2cn(CC(O)CN3CCc4ccccc43)c3ccccc23)cc1 (stereo unspecified) |  |  | active: 5.62 µM
Cc1cc(-n2c(C)nc3ccccc3c2=O)ccc1NC(=O)c1ccc(C)c([N+](=O)[O-])c1 |  |  | inconclusive: 3.16 µM [inhibitor, partial curve]
CCC1Oc2ccc(NC(=O)COC)cc2CN(Cc2cc(F)cc(F)c2)C1=O (stereo unspecified) |  |  | inconclusive: 11.2 µM [inhibitor, partial curve]
CN(C)Cc1nnc(C2CCN(C(=O)c3nc(N)nc4c3CCCC4)CC2)n1C | inactive: -21.9% |  | 
CCOc1cc(CN2CCC(C)(c3noc(C4CCOCC4)n3)CC2)ccc1O |  |  | inconclusive: 14.1 µM [inhibitor, single point]
CC(=O)Nc1ccc(CNC2(Cc3cc(CN4CCOCC4)on3)COC2)cc1 | inactive: 2.7% [at 44.1 µM] |  | 
Cc1nc(CN2C[C@H](C(=O)NCc3cccc(Cl)c3)C[C@@H]2c2ccc(F)cc2)cs1 |  |  | inconclusive: 7.94 µM [inhibitor, partial curve, poor fit]
COc1cc(C2c3c(-c4c(C)cc(C)cc4O)n[nH]c3C(=O)N2CCO)cc(OC)c1OC (stereo unspecified) |  | inactive | 
Cc1nc2nc(SCc3c(F)cccc3Cl)nn2c(C)c1Cc1ccccc1 |  |  | inconclusive: 10 µM [inhibitor, single point]
O=C(NC1CCCN(c2cc(-c3ccc(Cl)cc3)[nH]n2)C1)c1ccccn1 (stereo unspecified) |  |  | inconclusive: 0.891 µM [inhibitor, partial curve, poor fit]
O=C(NCC1CC1)c1nc2c(o1)CCN(Cc1ccc3c(c1)CCO3)CC2 |  | inactive [at 44.1 µM] | 
O=C1c2ccccc2-c2onc3c(Br)cc(NC4CCCCC4)c1c23 | inactive: -3.54% |  | 
COCC(c1ccccn1)N(C)C(=O)c1cc(S(N)(=O)=O)ccc1F (stereo unspecified) | inactive: 14.1% |  | 
CN1[C@@H](CCC(=O)NCc2cccs2)CNC(=O)[C@@H]2[C@H]1CCN2Cc1cccc(OC(F)(F)F)c1 | inactive: -8.36% |  | 
Cc1cccc(N2C(=O)CSC23C(=O)N(CC(=O)NCCc2ccccc2)c2ccccc23)c1 (stereo unspecified) |  |  | inconclusive: 12.6 µM [inhibitor, partial curve]

Compound | activity, negative = inhibition | outcome | Potency
CN1C(=O)c2cccn2CC1C(=O)Nc1cccc(Cl)c1 (stereo unspecified) |  |  | inconclusive: 1.78 µM [inhibitor, partial curve, poor fit]
Cc1cccc(-c2noc(CN(C(C)C)S(=O)(=O)c3ccc(Br)cc3)n2)c1 |  |  | inconclusive: 10 µM [inhibitor, single point]
CN1CCC(Oc2ccc(C(N)=O)cn2)CC1 | inactive: 43.8% |  | 
COc1ccccc1N1CCN(C(=O)c2ccc3c(c2)N(Cc2ccccc2)C(=O)c2ccccc2S3(=O)=O)CC1 |  |  | active: 7.08 µM
COc1ccc(-c2nnc(C[C@@H]3C[C@@H](C(C)C)[C@H](CN(C)CCc4ccccn4)C=C3C)o2)cc1 |  |  | active: 11.2 µM
COc1cccc(NC(=O)C2CCCN(Cc3ccncc3)CCC(=O)NCC2)c1 (stereo unspecified) |  |  | inconclusive: 4.47 µM [inhibitor, partial curve]
O=C(CCC[C@H]1NC[C@@H]2C[C@H]1CN(Cc1ccccc1)C2)Nc1ccc(F)cc1F |  |  | inconclusive: 12.6 µM [inhibitor, single point]
CCOC(=O)CCCOc1cccn2c(=O)c(-c3cc(C)n(-c4ccccc4C)n3)c(C)nc12 | inactive: -16.8% |  | 
CCN(CC)c1ccc(NC(=O)C(NS(=O)(=O)c2cccs2)C(C)C)c(C)c1 (stereo unspecified) |  |  | inconclusive: 17.8 µM [inhibitor, single point]
COc1ccc(-n2nc(C3CCN(Cc4cccn4C)CC3)[nH]c2=O)cc1 |  |  | active: 12.6 µM
COCCN1CCC2(C1)CN(C)c1ccc(C(=O)Nc3ccccc3)cc12 (stereo unspecified) |  |  | inconclusive: 10 µM [inhibitor, partial curve, poor fit]
CCC1(C(=O)NCCc2ccccc2)CCCCC(=O)N1 (stereo unspecified) | inactive: 27.5% |  | 
CCOC(=O)c1[nH]c(C)c(CCC(=O)N2CCN(c3cc(Cl)ccc3C)CC2)c1C |  |  | active: 0.562 µM
COCCc1nncn1C1CCN(C(=O)c2cc(Cl)ccc2F)CC1 | inactive: -3.73% |  | 
Cc1nc(-c2cccs2)cc([C@H]2CN3CC[C@H]2C[C@@H]3COC(=O)Nc2cccc(C(F)(F)F)c2)n1 |  |  | active: 7.94 µM
CCOC(=O)c1c(C)[nH]c(C)c1S(=O)(=O)N1CCCC(C(=O)N2CCN(c3ccc(Cl)cc3)CC2)C1 (stereo unspecified) |  |  | inconclusive: 10 µM [inhibitor, single point]
COc1cccc([C@H]2CN(C(=O)OCC(C)C)[C@@H]3C4CCN(CC4)[C@H]23)c1 |  |  | inconclusive: 8.91 µM [inhibitor, partial curve, poor fit]
CC(C)N(Cc1ccccc1)Cc1nnc2cc(-c3nc(-c4ccccc4)no3)ccn12 |  | inactive | 
CCC(=O)N1CCc2cc(Br)cc(S(=O)(=O)N3CCCC(C(=O)Nc4ccc(CC)cc4)C3)c21 (stereo unspecified) |  | inactive | 
COc1ccc(-n2c(CCC(=O)O)ccc2-c2ccccc2)cc1 | inactive: 26.5% |  | 
CC(=O)NCC(=O)N1Cc2ccccc2CC2(CCCN2C)C1 (stereo unspecified) | inactive: 22.4% |  | 
COc1ccc(-c2noc(CC3CCN(C(=O)Cc4ccc(OC)c(OC)c4)CC3)n2)cc1 |  |  | active: 11.2 µM
COc1ccc(C(=O)Nc2ccc3n(c2=O)C[C@H]2C[C@@H]3CN(S(=O)(=O)c3ccc(OC)cc3)C2)cc1 | inactive: 7.39% |  | 
